Source: publication PMC6919601, “Identification of Plasmodium dipeptidyl aminopeptidase allosteric inhibitors by high throughput screening” (PLoS ONE, 2019)
The whole screen tested about 110,000 compounds, of which about 230 (0.21%) showed an effect of 50% or more. The list shows a part of the results.

target: DPAP1 (Plasmodium falciparum, UniProt Q8IIJ9); assay: primary screen, percent inhibition; read by cleavage of a fluorogenic dipeptide substrate; higher = more effect of the substance; parameters: species or system P. falciparum D10 trophozoite lysates; single well
Sequence (Q8IIJ9 whole entry, looked up): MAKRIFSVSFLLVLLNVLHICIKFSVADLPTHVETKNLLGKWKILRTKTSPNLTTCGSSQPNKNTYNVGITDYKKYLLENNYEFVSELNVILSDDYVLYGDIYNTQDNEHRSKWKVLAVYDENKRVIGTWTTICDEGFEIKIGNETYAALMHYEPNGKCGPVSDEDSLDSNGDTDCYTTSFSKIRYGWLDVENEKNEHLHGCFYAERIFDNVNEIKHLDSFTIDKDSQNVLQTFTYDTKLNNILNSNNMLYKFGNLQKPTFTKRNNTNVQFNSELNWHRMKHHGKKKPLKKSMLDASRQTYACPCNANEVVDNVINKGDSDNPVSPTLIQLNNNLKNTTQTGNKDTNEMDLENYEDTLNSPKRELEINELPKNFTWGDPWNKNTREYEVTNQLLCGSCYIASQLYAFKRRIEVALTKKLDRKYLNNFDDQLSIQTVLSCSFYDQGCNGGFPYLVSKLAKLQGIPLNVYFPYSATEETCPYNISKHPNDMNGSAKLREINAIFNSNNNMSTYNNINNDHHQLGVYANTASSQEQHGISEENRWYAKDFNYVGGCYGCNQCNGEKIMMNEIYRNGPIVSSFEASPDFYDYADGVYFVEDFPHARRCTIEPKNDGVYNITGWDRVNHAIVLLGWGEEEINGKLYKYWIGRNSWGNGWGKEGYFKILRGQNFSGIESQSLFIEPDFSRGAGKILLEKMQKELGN
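Note: 30 min substrate incubation versus DMSO and 10 µM JCP410 controls.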

Row | SMILES | % Inhibition @ 10 uM [%]
1 | CCC(C)NC(=O)Nc1cn(C)c(=O)c2ccccc12 (stereo not drawn) | 4.68
2 | CCOC(=O)c1c(CSCCN(CC)CC)oc2ccc(OC)cc12 | 3.66
3 | COC(=O)/C=c1/sc2n(c1=O)C(C)=CC(C)(C)N=2 | 4.08
4 | Cc1c2cnn(CC(=O)N3CCC4(CC3)OCCO4)c(=O)c2c(C)n1Cc1ccccc1F | -5.81
5 | CCCn1cc2c(c1-c1ccc(Cl)cc1)c(=O)n(C)c(=O)n2C | 0.366
6 | O=C(O)c1cc(-c2cccc(Cl)c2)nc2[nH]nc(-c3ccccc3)c12 | -4.18
7 | CCOC(=O)c1c(-c2cccs2)csc1N | 4.33
8 | O=C(N/C(=C\c1ccco1)C(=O)N1CCN(C/C=C/c2ccccc2)CC1)c1ccccc1 | 2.09
9 | CC(C)N(CCCNC(=O)c1cc2sccc2n1C)Cc1ccccc1 | -4.85
10 | O=C(O)c1sc2ccccc2c1Nc1ccccc1 | 4.57
11 | O=C(NCC1CCCO1)c1cnn(-c2ccccc2)c1-n1cccc1 (stereo not drawn) | -7.1
12 | O=C(CN1CCCC1)Nc1ccc(Cc2ccc(NC(=O)CN3CCCC3)cc2)cc1 | -0.865
13 | CC1=C(c2ccc(C)cc2)S(=O)(=O)N=C1NC1CCCC(C)C1C (stereo not drawn) | 3.87
14 | COc1ccc(C2C3C(=NN2C(C)=O)C2CCN3CC2)cc1OC (stereo not drawn) | -7.27
15 | COc1cc(C(=O)Nc2ccc(C)c(F)c2)ccc1OC(F)F | 0.316
16 | CCn1cc(/C=C(\NC(=O)c2ccccc2OC)C(=O)NCc2ccccc2)c2ccccc21 | -7.27
17 | COc1ccc(CNCC(=O)O)cc1 | 1.42
18 | CC(=O)OC(C)CC#CCN1CCCC1 (stereo not drawn) | 3.48
19 | O=C(Nc1ccc(Oc2ccc(Cl)cc2)cc1)C1CCCN1S(=O)(=O)c1ccccc1 (stereo not drawn) | -1.79
20 | COc1ccccc1OCCCCc1c(C)n[nH]c1C | -0.833
21 | O=C(NC(c1ccccc1)c1ccccc1)c1nnc(O)c2ccccc12 | -2.63
22 | CC(C)CC(NC(=O)c1cccc(NC(=O)N2CCC(N(C)C)CC2)c1)C(=O)NCC#N (stereo not drawn) | -2.35
23 | O=C(O)CN(Cc1ccccc1)Cc1ccccc1 | -2.66
24 | COc1ccc(C)cc1N(CC(=O)N1CCCC1)S(C)(=O)=O | -10
25 | CC(C)(C)c1ccccc1OCC(O)CN1CCN(Cc2ccc3c(c2)OCO3)CC1 (stereo not drawn) | -1.26
26 | COc1ccc(/C=C2\N=C(SC)NC2=O)cc1 | -0.0508

Row | SMILES | % Inhibition @ 10 uM [%]
27 | Cc1ccc(C(c2c(O)nc(O)nc2O)N2CCCC2)cc1 (stereo not drawn) | 6.13
28 | CCCCc1ccc(C(=O)NC(Cc2ccccc2)C(=O)O)cc1 (stereo not drawn) | -0.941
29 | Cc1ccc(OCCn2c(SCCO)nc3c(N)ncnc32)cc1 | -7.58
30 | CCOc1ccc(N(CC(=O)NCc2ccccc2Cl)S(C)(=O)=O)cc1 | -3.29
31 | Clc1ccccc1Cn1nnc(-c2cccs2)n1 | -3.34
32 | Cc1ccccc1Cn1c(C)c(CNCCc2ccccc2Cl)c(C(=O)O)c1C | 11.5
33 | CC(=O)N(CN1C(=O)C2CCCCC2C1=O)c1ccccc1 (stereo not drawn) | 1.03
34 | Cc1nnc(N2CCN(C(=O)NCc3ccco3)CC2)c2nn(-c3ccccc3)c(C)c12 | 1.11
35 | CC(=O)c1c(C)n(-c2ccccc2C)c2ccc(O)cc12 | 5.16
36 | N#Cc1ccccc1Cn1c(=O)n(CC(=O)NCc2ccccc2Cl)c(=O)c2sccc21 | -7.85
37 | COc1ccc(CNS(=O)(=O)c2cc(Br)cnc2N)cc1 | -2.84
38 | CC(C)(C)C1CCc2c(sc(NC(=O)c3ccc(Br)o3)c2C#N)C1 (stereo not drawn) | -6.7
39 | Cn1c(NC(=O)c2ccc(Cl)cc2)nc2ccccc21 | 0.512
40 | COCCNC(=O)c1cc(-c2ccc(Br)cc2)[nH]n1 | -2.37
41 | CS(=O)(=O)N1N=C(c2ccc(Br)cc2)CC1c1cccs1 (stereo not drawn) | -3.1
42 | COc1cc(/C=C/C(=O)Nc2nc3c(s2)C(=O)CC(C)(C)C3)cc(OC)c1OC | 5.17
43 | COc1ccc(OCC(=O)Nc2nc(-c3ccc(F)cc3)cs2)cc1 | -3.04
44 | C=CCN1C(=O)c2ccccc2C1C(=O)NCc1cccnc1 (stereo not drawn) | -1.34
45 | COc1ccc(OC)c(CN2CCN(c3ccccc3OC)CC2)c1 | 4.81
46 | O=C(Nc1ccccc1)Nc1cccc2cccnc12 | 2.33
47 | Cc1c(C(=O)NC(C)CCc2ccccc2)oc2c1C(=O)CCC2 (stereo not drawn) | -0.12
48 | COc1ccc(S(=O)(=O)N2CCCCC2)cc1-n1cnnn1 | 1.32
49 | COc1ccc(OC)c(C(=O)c2oc3ccc(Br)cc3c2N)c1 | 8.89
50 | Cc1cc(N2C(=O)C3C4c5ccccc5C(c5ccccc54)C3C2=O)no1 (stereo not drawn) | 0.52
51 | CCc1ccc(C(=O)CSc2nnnn2-c2ccccc2)cc1 | -2.39
52 | Cc1ccc(-c2nnc(C)nc2-c2cn(C)c3ccccc23)cc1 | 1.32

Row | SMILES | % Inhibition @ 10 uM [%]
53 | CCc1ccc(N2CC(C(=O)Nc3ccccc3Br)CC2=O)cc1 (stereo not drawn) | 28.3
54 | Cc1cc(/C=C2\SC(N)=NC2=O)c(C)n1-c1ccc(Cl)c(Cl)c1 | -9.75
55 | CCOC(=O)C1(C#N)C(N)=C(C#N)C(c2ccccc2)=CC1c1ccccc1 (stereo not drawn) | -6.76
56 | CC(=O)Nc1ccc(S(=O)(=O)Nc2ccccc2Cl)cc1 | -2.55
57 | CCOc1ccc(NC(=O)CS(=O)(=O)Cc2ccccc2)cc1 | 0.658
58 | COc1ccc(C2C(C(C)=O)=C(C)N=c3s/c(=C\c4ccc5c(c4)OCO5)c(=O)n32)c(OC)c1 (stereo not drawn) | 4.67
59 | Cc1cc(NS(=O)(=O)c2ccc(NC(=O)C3CC3)cc2)no1 | 4.05
60 | O=C(COc1ccc(Cl)cc1Cl)NCCCN1CCOCC1 | -2.97
61 | CN1CCN(CCNC(=O)c2ccc(CS(=O)c3ccc(Br)cc3)o2)CC1 (stereo not drawn) | -0.716
62 | CCc1nn(-c2cc(Oc3ccccc3C)ncn2)c(N)c1C(N)=O | 0.145
63 | CCCN(CCC)C(=O)CC(c1ccccc1)C1CCOC(C)(C)C1 (stereo not drawn) | 1.62
64 | COC(=O)c1ccc(CC(=O)c2c(O)cc(O)cc2O)o1 | -8.12
65 | CN(C)CCn1c2ccccc2n2cc(-c3ccc(F)cc3)nc12 | -4.82
66 | Cc1ccc(-n2ncc3c(NCCN4CCOCC4)ncnc32)cc1 | -1.27
67 | O=C(C1CC2CCC1C2)N1CCN(C(c2ccccc2)c2ccccc2)CC1 (stereo not drawn) | -0.233
68 | Cc1ccc(CS(=O)Cc2ccc(C(=O)NCCc3ccccc3)o2)cc1 (stereo not drawn) | 1.22
69 | CC(C)(C)c1cc(-c2nc3ccccc3[nH]2)cc(C(C)(C)C)c1O | -8.11
70 | c1ccc(CN2CCN(Cc3c[nH]c4ccccc34)CC2)nc1 | 1.89
71 | COc1cccc(C2C(C#N)=C(N)Oc3[nH]nc(C(C)(C)C)c32)c1OC (stereo not drawn) | 2.7
72 | CCC1CCCCN1Cc1ccc(OC)c(C)c1C (stereo not drawn) | -2.34
73 | CCN(CC)S(=O)(=O)c1ccc2ncc(C(=O)N3CCCCC3C)c(O)c2c1 (stereo not drawn) | -6.16
74 | Cc1nnn(C23CC4CC(CC(C(=O)NC5CCCC5)(C4)C2)C3)n1 | 4.95
75 | CN1C(=O)/C(=C/c2ccccc2O)S/C1=N/c1cccc(C(=O)O)c1 | 14.3
76 | O=C(NCCCNCc1ccccc1)c1ccccn1 | -0.386
77 | COc1ccccc1NC(=O)COc1ccccc1C | 4.11
78 | CC(C)(C)C(=O)c1cn(CC(=O)O)c2ccccc12 | 3.35

Row | SMILES | % Inhibition @ 10 uM [%]
79 | COc1ccc(-c2ccc(O)nn2)cc1 | -3.78
80 | O=C(N[C@@H](CC1CCCCC1)C(=O)NCCN1CCCc2ccccc21)c1ccccc1 | 1.35
81 | Cc1ccsc1C(=O)NCc1ccc(Cl)cc1 | 5.25
82 | Cc1nc(NC2=NCN(C(C)C)CN2)nc2ccccc12 | -5
83 | CC1=C(C(=O)Nc2ccccc2)C(c2ccccc2)NC(S)=N1 (stereo not drawn) | -0.341
84 | NC(=O)c1c(NC(=O)C2CCCCC2C(=O)O)sc2c1CCCC2 (stereo not drawn) | -1.88
85 | COc1ccc(C2c3cc(OC)c(OC)cc3CCN2C(=O)c2ccc(C)cc2)cc1OC (stereo not drawn) | -4.64
86 | CCSc1nc2sc3c(c2c2nnc(S)n12)CCCC3 | -3.96
87 | O=C(Nc1cccc(-c2nc3ccccc3s2)c1)C12CC3CC(CC(C3)C1)C2 | -3.42
88 | COc1ccc(C(=O)Nc2cccc(F)c2)cc1OC | 3.1
89 | CCC1=NC(C(F)(F)F)(C(F)(F)F)C2=C(CC(C)(C)CC2=O)N1Cc1ccccc1 | 3.54
90 | O=C(NCCC1=CCCCC1)c1ccc2nc(N3CCCCC3)sc2c1 | 5.73
91 | NC1=NC(=O)/C(=C/c2ccc(OCc3cccc(Cl)c3)cc2)S1 | -0.796
92 | O=C(N/C(=C/c1cccnc1)C(=O)N1CCCCCC1)c1ccccc1 | 0.687
93 | Cc1ccc2nc(-c3ccc(NC(=O)Nc4ccc(Cl)cc4)cc3)sc2c1 | -0.0369
94 | Cn1c(=O)[nH]c(=O)c2c1nc(CN(Cc1ccccc1)Cc1ccccc1)n2Cc1ccc(F)cc1 | 2.04
95 | O=C(O)C1CCCCC1C(=O)Nc1nc(-c2ccc(Cl)s2)cs1 (stereo not drawn) | -2.53
96 | CCCCCNC(=O)COc1ccc(Cl)cc1 | -3.72
97 | CCOC(=O)C1=C(C)N=c2s/c(=C\c3ccc(Cl)cc3Cl)c(=O)n2C1/C=C/c1ccccc1 (stereo not drawn) | -3.74
98 | C=CCNC(=O)c1c(O)nc2c(c1O)CCCC2 | -0.458
99 | CCN(Cc1ccccc1)S(=O)(=O)c1ccc2[nH]c3c(c2c1)CCCC3 | 1.21
100 | CC(C)Cn1c(CN2CCOCC2)nc2c1c(=O)n(C)c(=O)n2C | 2
101 | Cn1cc(S(=O)(=O)N2CCCC2)cc1C(=O)NCCc1ccc(Cl)cc1 | -0.361
102 | COc1ccc(-c2c(C)nn3c(C(F)(F)F)cc(C)nc23)cc1OC | -2.91
